We go through three molecules from paper PMC9000059.

The chains behind the UniProt entries cited, without tags or fusion partners. Residues count along the entry.
UniProt P56726, residues 33-793: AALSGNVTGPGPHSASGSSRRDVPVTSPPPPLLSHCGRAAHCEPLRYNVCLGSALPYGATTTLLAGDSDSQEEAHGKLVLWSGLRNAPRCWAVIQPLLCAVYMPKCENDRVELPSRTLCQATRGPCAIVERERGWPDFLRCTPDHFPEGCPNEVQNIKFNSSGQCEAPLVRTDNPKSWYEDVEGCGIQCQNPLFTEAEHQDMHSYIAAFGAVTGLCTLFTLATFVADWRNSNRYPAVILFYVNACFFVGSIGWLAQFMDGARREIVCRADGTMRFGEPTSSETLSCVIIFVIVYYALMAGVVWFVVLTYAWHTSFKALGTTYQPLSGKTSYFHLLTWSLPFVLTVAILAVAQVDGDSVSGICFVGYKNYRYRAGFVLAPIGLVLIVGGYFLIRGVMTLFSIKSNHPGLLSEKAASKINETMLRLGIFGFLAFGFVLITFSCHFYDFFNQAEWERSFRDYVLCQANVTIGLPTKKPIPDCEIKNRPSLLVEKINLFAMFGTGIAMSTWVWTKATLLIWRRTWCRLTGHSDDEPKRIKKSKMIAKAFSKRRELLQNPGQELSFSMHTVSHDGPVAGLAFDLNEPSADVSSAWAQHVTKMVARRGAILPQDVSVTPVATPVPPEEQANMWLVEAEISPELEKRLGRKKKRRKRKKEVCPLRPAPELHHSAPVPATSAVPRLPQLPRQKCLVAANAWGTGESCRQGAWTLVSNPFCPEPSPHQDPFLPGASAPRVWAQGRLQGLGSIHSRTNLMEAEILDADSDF
UniProt Q15363, residues 21-201: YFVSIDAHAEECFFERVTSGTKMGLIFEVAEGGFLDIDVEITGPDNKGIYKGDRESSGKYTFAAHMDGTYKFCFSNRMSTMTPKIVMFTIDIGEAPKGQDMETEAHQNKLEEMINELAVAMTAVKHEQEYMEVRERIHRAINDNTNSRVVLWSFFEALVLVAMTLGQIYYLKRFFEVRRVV
UniProt Q9R0Q3, residues 21-201: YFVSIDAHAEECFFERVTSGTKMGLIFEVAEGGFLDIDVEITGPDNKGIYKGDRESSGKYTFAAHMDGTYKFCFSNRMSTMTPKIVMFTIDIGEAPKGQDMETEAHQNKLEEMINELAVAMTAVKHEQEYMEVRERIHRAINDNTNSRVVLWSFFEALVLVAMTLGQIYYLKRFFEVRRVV

No constants are given. Whether binding was seen depends on the method and setting. In cells and extracts the contact can be indirect. Some results given as binding are weak or reduced against the parent protein; the word gives no strength.

Test [1] concerns the target SMO–HA transfected in 293T cells (mouse) (UniProt P56726). Nature of the test: co-IP; 293T cells transfected with SMO–HA or FZD2-HA; HA immunopurification; blot for endogenous TMED2.
Test [2] concerns the target carboxyl-terminally hemagglutinin (HA) epitope tagged SMO protein (SMO–HA) (mouse) (UniProt P56726). Nature of the test: co-IP; extracts of mouse ESC clones expressing SMO–HA; membrane lysis buffer (50 mM Tris-HCl pH 7.5, 1 mM β-mercaptoethanol, 150 mM NaCl, 1% ChAPS); anti-HA affinity matrix, 1 hour; blot for endogenous TMED2 and TMED10.
Test [3] addresses N-terminally tagged SMO (HA–SMO) (mouse) (UniProt P56726). The test is described as follows: condition: only NPCs treated with recombinant SHH (as early as 1 hour); co-IP; extracts of NPCs expressing HA–SMO or SMO–HA, cells treated with recombinant SHH for the indicated times (from 1 hour); membrane lysis buffer with 1% ChAPS; anti-HA affinity matrix; blot for endogenous TMED2.
For test [4] the target is unchanged. The test is described as follows: co-IP; extracts of NPCs derived from ESCs expressing SMO–HA or HA–SMO, without SHH; membrane lysis buffer with 1% ChAPS; anti-HA affinity matrix, 1 hour; blot for endogenous TMED2.
The target in test [5] is carboxyl-terminally hemagglutinin (HA) epitope tagged SMO protein (SMO–HA) (mouse) (UniProt P56726). The test is described as above.
Test [6] addresses N-terminally tagged SMO (HA–SMO) (mouse) (UniProt P56726). Nature of the test: co-IP; extracts of NPCs expressing HA–SMO or SMO–HA, cells treated with recombinant SHH for the indicated times (from 1 hour); membrane lysis buffer with 1% ChAPS; anti-HA affinity matrix; blot for endogenous TMED2.
Test [7] has as its target carboxyl-terminally hemagglutinin (HA) epitope tagged SMO protein (SMO–HA) (mouse) (UniProt P56726). Described as above.

For “TMED2 (endogenous, 293T cells) (from UniProt Q15363 21-201)”, the binding result in test [1] is “binds”.

Turning to “TMED2 (endogenous, mouse) (from UniProt Q9R0Q3 21-201)”, the binding entry in test [2] is recorded as “binds”; in test [3], “no binding”; in test [4] it was “binds”; in test [5], “binds”; in test [6], “binds weakly”; in test [7], “no binding (condition: NPCs treated with recombinant SHH)”.

B1: TMED10 (endogenous, mouse) (protein, UniProt Q9D1D4 32-219)
chain: ISFHLPVNSRKCLREEIHKDLLVTGAYEITDQSGGAGGLRTHLKITDSAGHILYAKEDATKGKFAFTTEDYDMFEVCFESKGTGRIPDQLVILDMKHGVEAKNYEEIAKVEKLKPLEVELRRLEDLSESIVNDFAYMKKREEEMRDTNESTNTRVLYFSIFSMFCLIGLATWQVFYLRRFFKAKKLIE
Take B1: the binding result in test [2] was “no binding”.
